# Measured values: PubChem BioAssay (Tox21)
# Where “and” joins values, the source holds several entries; their conditions need not be identical. Equal values may be shown once. More than one record can exist for a structure, and the calls need not agree. Calls of active or inactive are those of the source. Unless noted, calls follow the shape of the dose curve; as a rule, active = well fitted curve in the direction sought with a large enough effect in the repeat runs; inconclusive = weak or mixed curves; inactive = no such curve, though single readings can be large; an effect the other way counts as inactive or inconclusive.
# Key:
# [1] = qHTS assay for small molecule agonists of the p53 signaling pathway (AID 651631; calls by dose curve; also: nearly all actives have a fitted effect of over 15% in size; also: potency is read from the fitted curve at half-maximal effect; as to activation: % is scaled to controls: 0 for no effect and ±100 for the full control effect); details: HCT-116 p53RE-bla reporter, beta-lactamase FRET ratio, 16 h; activation: at 73.3 µM (top of the series) unless noted
# In short: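 Beta-lactamase reporter activity under p53 response elements was quantified in HCT-116 cells by FRET fluorescence, following 16 h incubation with test compounds at 37 °C and 2 h substrate development at room temperature.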
# [2] = qHTS assay for small molecule disruptors of the mitochondrial membrane potential (AID 720635); details: HepG2 mitochondrial membrane potential, Mito-MPS dye ratio; ratio activity, negative = MMP loss: at 83.2 µM (top of the series) unless noted; also: potency is read from the fitted curve at half-maximal effect; as to ratio activity, negative = MMP loss: % is scaled to controls: 0 for no effect and ±100 for the full control effect
# In short: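 HepG2 cells exposed to compound 1 hr at 37C, then Mito-MPS dye 30 min. Ratio read of aggregate (540/590 nm) versus monomer (490/535 nm) fluorescence.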
# [3] = biological target: Glucocorticoid receptor (Homo sapiens) (UniProt P04150); test: qHTS assay to identify small molecule antagonists of the glucocorticoid receptor (GR) signaling pathway (AID 720692; active = well fitted inhibition curve with a large enough effect in the signal ratio in the repeat runs, not every such curve was filed as active; inconclusive = weak or mixed curves, or effect the other way; inactive = no such curve, though single readings can be large or run the other way; the % refers to the signal ratio; also: potency is read from the fitted curve at half-maximal effect); details: GR-bla HeLa, beta-lactamase FRET ratio, dexamethasone-stimulated, 18 h; activity change, negative = inhibition: at 58.5 µM (top of the series) unless noted
# In short: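 Read-out: beta-lactamase FRET substrate fluorescence, 2 h at room temperature, in HeLa cells stably carrying a GRE-driven bla reporter. Compounds were co-incubated with 5 nM dexamethasone agonist (final) for 18 h at 37 C.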
# [4] = qHTS assay to test for compound auto fluorescence at 460 nm (blue) in HepG2 cells (AID 720687); also: % is scaled to controls: 0 for no effect and ±100 for the full control effect
# In short: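 HepG2 cells in MEM with 10% FBS, attached overnight at 37 C, were exposed to compound or DMSO for 1 hr at 37 C, 5% CO2. Blue fluorescence was read at 405/460 nm, with triamterene as reference fluorophore.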
# [5] = qHTS assay for small molecules that induce genotoxicity in human embryonic kidney cells expressing luciferase-tagged ATAD5 (AID 651632); also: nearly all actives have a fitted effect of over 15% in size; also: potency is read from the fitted curve at half-maximal effect
# In short: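 Luminescence read-out: after 16 hr compound exposure at 37C, ATAD5-luciferase HEK293T cells received Amplite, 30 min RT, then CCD imaging. A rise in signal marks genotoxic stress.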
# [6] = qHTS assay for small molecule agonists of the p53 signaling pathway - cell viability (AID 651633; calls by dose curve; also: potency is read from the fitted curve at half-maximal effect; nearly all actives have a fitted effect of over 30% in size)
# In short: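 p53RE-bla cells were treated with compound for 16 hours at 37 C. Cytotoxicity was then measured as CellTiter-Glo luminescence after 30 min at room temperature.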
# [7] = qHTS assay for small molecules that induce genotoxicity in human embryonic kidney cells expressing luciferase-tagged ATAD5 - cell viability (AID 651634; calls by dose curve; also: potency is read from the fitted curve at half-maximal effect; nearly all actives have a fitted effect of over 25% in size)
# In short: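 HEK293T ATAD5-luc cells, 2,000/well; compound 15.5 hr, 37C/5% CO2; CellTiter-Fluor 30 min, 37C; fluorescence read.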
# [8] = qHTS assay for small molecule disruptors of the mitochondrial membrane potential - cell viability (AID 720634; calls by dose curve; also: potency is read from the fitted curve at half-maximal effect; nearly all actives have a fitted effect of over 20% in size)
# In short: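 Luminescence from CellTiter-Glo (ATP content) gave viability in HepG2 cells, read in the same wells as the MMP dye assay after 1 hr compound exposure at 37 C.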
# [9] = biological target: Glucocorticoid receptor (Homo sapiens) (UniProt P04150); test: qHTS assay to identify small molecule agonists of the glucocorticoid receptor (GR) signaling pathway (AID 720691; active = well fitted activation curve with a large enough effect in the signal ratio in the repeat runs, not every such curve was filed as active; inconclusive = weak or mixed curves, or effect the other way; inactive = no such curve, though single readings can be large or run the other way; the % refers to the signal ratio; also: potency is read from the fitted curve at half-maximal effect); details: GR-bla HeLa, beta-lactamase reporter ratio, 18 h; activation: at 62.4 µM (top of the series) unless noted
# In short: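 HeLa GR-bla reporter line; cells pre-incubated 4 h, compound in DMSO 18 h at 37 C; LiveBLAzer B/G FRET substrate 2 h RT; fluorescence intensity read-out.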
# [10] = qHTS assay to test for compound auto fluorescence at 535 nm (green) in HepG2 cells (AID 720675); also: % is scaled to controls: 0 for no effect and ±100 for the full control effect
# [11] = qHTS assay to test for compound auto fluorescence at 590 nm (red) in HEK293 cells (AID 720679); also: potency is read from the fitted curve at half-maximal effect
# In short: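 Each well held 2,000 HEK293 cells in medium containing 10% dialyzed FBS. Following 4-5 hr attachment at 37C, 23 nL test compound or DMSO was added; plates sat overnight, and red fluorescence (540/590nm) was recorded.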
# [12] = qHTS assay to test for compound auto fluorescence at 535 nm (green) in HEK293 cell free culture (AID 720682); details: cell-free medium, green autofluorescence 485/535 nm; also: potency is read from the fitted curve at half-maximal effect
# In short: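 Each library compound, or DMSO control, is added by pintool to medium alone, comprising DMEM and 10% FBS. Emission at 535 nm following 485 nm excitation is quantified against fluorescein.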
# [13] = qHTS assay to test for compound auto fluorescence at 590 nm (red) in HEK293 cell free culture (AID 720683); details: cell-free medium autofluorescence, Ex540/Em590 red; also: potency is read from the fitted curve at half-maximal effect
# In short: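 Cell-free wells of DMEM with 10% FBS received compound, and intrinsic fluorescence was read at excitation/emission 540/590 nm. Values expressed as equivalence to Rose Bengal sodium.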
# [14] = qHTS assay to test for compound auto fluorescence at 590 nm (red) in HepG2 cell free culture (AID 720684); details: cell-free medium autofluorescence, red 540/590 nm; also: potency is read from the fitted curve at half-maximal effect
# In short: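 Auto fluorescence equivalency versus Rose Bengal sodium, red channel Ex/Em 540/590 nm; compounds in cell-free MEM/10% FBS; DMSO vehicle control.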
# [15] = qHTS assay to test for compound auto fluorescence at 535 nm (green) in HepG2 cell free culture (AID 720686); also: potency is read from the fitted curve at half-maximal effect
# Tags tell the direction and shape of the fitted curve or compound fluorescence and quenching.
# Sequence of UniProt P04150 (P04150 whole entry, looked up): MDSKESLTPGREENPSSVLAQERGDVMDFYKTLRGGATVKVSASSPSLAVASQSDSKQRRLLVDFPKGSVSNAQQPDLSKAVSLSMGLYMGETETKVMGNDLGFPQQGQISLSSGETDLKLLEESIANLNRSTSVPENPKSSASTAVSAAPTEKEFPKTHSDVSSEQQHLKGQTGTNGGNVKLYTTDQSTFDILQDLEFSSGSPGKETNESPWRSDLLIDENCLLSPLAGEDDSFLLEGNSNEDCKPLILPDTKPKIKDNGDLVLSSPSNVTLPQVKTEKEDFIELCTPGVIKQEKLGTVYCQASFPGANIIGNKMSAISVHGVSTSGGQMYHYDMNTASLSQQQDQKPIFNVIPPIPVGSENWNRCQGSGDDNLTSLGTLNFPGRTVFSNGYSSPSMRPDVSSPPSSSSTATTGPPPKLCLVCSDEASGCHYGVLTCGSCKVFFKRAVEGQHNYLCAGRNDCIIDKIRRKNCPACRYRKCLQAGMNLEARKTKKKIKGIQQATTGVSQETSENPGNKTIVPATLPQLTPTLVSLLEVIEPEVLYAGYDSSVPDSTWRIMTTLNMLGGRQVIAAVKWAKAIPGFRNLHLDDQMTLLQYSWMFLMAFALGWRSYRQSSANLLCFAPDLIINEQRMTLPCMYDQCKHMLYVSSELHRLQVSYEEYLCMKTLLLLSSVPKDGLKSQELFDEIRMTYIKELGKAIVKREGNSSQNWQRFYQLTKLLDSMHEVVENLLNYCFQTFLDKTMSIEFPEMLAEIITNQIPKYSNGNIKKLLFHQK
smiles,measurement,setting,value
CC(=O)OCC(=O)[C@@]1(O)[C@H](OC(C)=O)C[C@H]2[C@@H]3CCC4=CC(=O)C=C[C@]4(C)[C@@]3(F)[C@@H](O)C[C@@]21C,Potency,[1],"inconclusive: 33.5 µM [activator, single point]"
same,Potency,[2],"inconclusive: 13.3 µM [inhibitor, single point]"
same,Potency,[3],"inconclusive: 0.338 µM [activator, full curve]"
CC(S)C(C)S (stereo unspecified),activation,[1],inconclusive: -1.53% [at 95.1 µM]
same,Potency,[2],inactive
same,Potency,[3],inactive
Nc1ccc(S(=O)(=O)NC(=O)c2ccccc2)cc1,Potency,[1],inactive
same,Potency,[3],inactive
CCCCCCCCN(C)CCCCCCCC,Potency,[1],"inconclusive: 69.4 µM [rising, partial curve, poor fit]"
same,Potency,[2],"inconclusive: 13.9 µM [activator, single point]"
same,Potency,[3],inactive
CNCc1cc(F)ccc1Oc1ccc(Cl)c(Cl)c1,activation,[1],inconclusive: 14.1%
same,Potency,[2],"inconclusive: 30.6 µM [activator, partial curve]"
same,"activity change, negative = inhibition",[3],inconclusive: -32.3%
Cc1cc(S(=O)(=O)O)c(N)cc1Cl,Potency,[1],inactive
same,Potency,[2],inactive
same,Potency,[3],inactive
CCCCCCCC/C=C/CCCOC(C)=O,activation,[1],inconclusive: 2.99%
same,"ratio activity, negative = MMP loss",[2],inconclusive: 5.27%
same,Potency,[3],"inconclusive: 54.9 µM [activator, single point]"
Cc1ccccc1N=Nc1ccc(N=Nc2c(O)ccc3ccccc23)c(C)c1,Potency,[1],"inconclusive: 5.96 µM [falling, partial curve, poor fit]"
same,Potency,[4],inactive
CCN(CC)C(=O)c1cc(S(=O)(=O)Cc2ccccc2)c(N2CCC(c3ccccc3)CC2)cc1N(CC)CCN(C)C,Potency,[5],"inconclusive: 27 µM [activator, partial curve, poor fit]"
same,Potency,[6],"inconclusive: 19.1 µM [cytotoxic, partial curve]"
same,Potency,[7],"inconclusive: 27 µM [falling, partial curve, poor fit]"
same,Potency,[8],"inconclusive: 33.5 µM [cytotoxic, partial curve, poor fit] and inconclusive: 24.1 µM [cytotoxic, single point]"
same,Potency,[2],"inconclusive: 2.37 µM [activator, full curve] and inconclusive: 8.53 µM [activator, partial curve, poor fit]"
same,Potency,[3],active: 21.3 µM and inactive
CC(=O)Oc1ccc(C2(c3ccc(OC(C)=O)cc3)C(=O)Nc3ccccc32)cc1,Potency,[1],active: 211 nM and active: 237 nM
same,Potency,[9],inactive
CCCCCCCCCCOC(=O)c1ccccc1C(=O)OCCCCCCCC,Potency,[1],"inconclusive: 27.3 µM [falling, partial curve, poor fit]"
same,Potency,[2],inactive
same,"activity change, negative = inhibition",[3],inconclusive: -4.8%
C[n+]1ccn(Cc2ccccc2)c1,activation,[1],inconclusive: 5.55%
same,Potency,[9],inactive
CCn1c2ccccc2c2cc([N+](=O)[O-])ccc21,Potency,[1],inconclusive: 61.1 µM [activator]
same,Potency,[2],active: 30.6 µM
same,Potency,[3],"inconclusive: 1.95 µM [inhibitor, full curve]"
CC1(C)[C@H](C(=O)O)N2C(=O)C[C@H]2S1(=O)=O,Potency,[1],"inconclusive: 0.0668 µM [inhibitor, partial curve, poor fit]"
same,Potency,[3],"inconclusive: 2.13 µM [rising, full curve]"
CN1CCC(=C2c3ccccc3CCc3sccc32)CC1,Potency,[1],"inconclusive: 4.22 µM [fluorescent, partial curve]"
same,Potency,[2],inconclusive: 11.9 µM [activator]
same,"activity change, negative = inhibition",[3],inconclusive: 0.262%
CCCc1c(OCCCCc2nn[nH]n2)ccc(C(C)=O)c1O,Potency,[1],"inconclusive: 26.6 µM [activator] and inconclusive: 61.1 µM [activator, partial curve, poor fit]"
same,Potency,[2],"active: 26.6 µM and inconclusive: 68.6 µM [inhibitor, single point]"
same,Potency,[3],"active: 23.9 µM and inconclusive: 54.9 µM [inhibitor, single point]"
CCCCOC(=O)C(=O)OCCCC,Potency,[1],inactive
same,Potency,[2],"inconclusive: 0.611 µM [activator, partial curve, poor fit]"
same,"activity change, negative = inhibition",[3],inconclusive: -7.7%
CCCCOC(=O)/C=C\C(=O)OCCCC,Potency,[1],inconclusive: 20 µM [activator]
same,"ratio activity, negative = MMP loss",[2],inconclusive: 15.3% [at 95.3 µM]
same,"activity change, negative = inhibition",[3],inconclusive: -1.11% [at 78.9 µM]
C[C@H]1[C@H](NC(=O)/C(=N/OC(C)(C)C(=O)O)c2csc(N)n2)C(=O)N1S(=O)(=O)O (stereo in doubt),Potency,[5],"inconclusive: 14.3 µM [activator, single point]"
CO[C@@]1(NC(=O)C(C(=O)O)c2ccc(O)cc2)C(=O)N2C(C(=O)O)=C(CSc3nnnn3C)CO[C@@H]21 (stereo partly specified),Potency,[1],"inconclusive: 0.507 µM [activator, single point]"
same,Potency,[2],"inconclusive: 0.0227 µM [activator, full curve]"
same,"activity change, negative = inhibition",[3],inconclusive: -0.785% [at 27 µM]
COc1cc(/C=C/C(=O)O[C@H]2CC[C@]34C[C@]35CC[C@]3(C)[C@@H]([C@H](C)CCC=C(C)C)CC[C@@]3(C)[C@@H]5CC[C@H]4C2(C)C)ccc1O,Potency,[5],active: 7.5 µM and inconclusive: 29.8 µM [activator]
c1ccc(Cc2ccccc2)cc1,Potency,[1],inactive
same,"ratio activity, negative = MMP loss",[2],inconclusive: 7.34%
same,Potency,[3],inactive
CC1(C)S[C@@H]2[C@H](NC(=O)COc3ccccc3)C(=O)N2[C@H]1C(=O)O,Potency,[1],"inconclusive: 19.4 µM [activator, partial curve, poor fit]"
same,Potency,[3],"inconclusive: 4.37 µM [activator, full curve] and inconclusive: 49 µM [activator, partial curve]"
N#CSc1ccc(N)c([N+](=O)[O-])c1,Potency,[1],"inconclusive: 54.8 µM [falling, partial curve, poor fit]"
same,Potency,[3],"inconclusive: 34.9 µM [cytotoxic, partial curve]"
CCn1nc(C)c2c1C(=O)NCC(c1ccc(O)cc1)=N2,Potency,[1],inactive
same,Potency,[2],"inconclusive: 68.6 µM [inhibitor, single point]"
same,"activity change, negative = inhibition",[3],inconclusive: -34.2%
CCCCOC(=O)[C@H](C)O,Potency,[1],inactive
same,"ratio activity, negative = MMP loss",[2],inconclusive: 7.49%
same,Potency,[3],inactive
c1ccc(-c2nn[nH]n2)cc1,Potency,[1],inactive
same,"activity change, negative = inhibition",[3],inconclusive: -1.73%
NC(=O)CC[C@@H](N)C(=O)O,Potency,[1],"inconclusive: 33.5 µM [activator, partial curve, poor fit]"
same,Potency,[2],inactive
same,Potency,[3],"inconclusive: 2.13 µM [activator, full curve, poor fit]"
CCCCCCCCCCCCN1CCOCC1,Potency,[5],inactive
same,Potency,[2],"inconclusive: 9.69 µM [activator, full curve]"
same,Potency,[10],inactive
CC(=O)Oc1ccccc1C(=O)Nc1ncc([N+](=O)[O-])s1,Potency,[5],"active: 1.33 µM and inconclusive: 176 nM [activator, partial curve]"
same,Potency,[8],"inconclusive: 4.22 µM [cytotoxic, partial curve, poor fit] and active: 556 nM"
same,Potency,[2],active: 1.5 µM and active: 351 nM
same,activation,[9],inconclusive: 6.08% and inconclusive: 2.2% [phenotype inactive]
COc1cccc2c1C(=O)c1c(O)c3c(c(O)c1C2=O)C[C@@](O)(C(C)=O)C[C@@H]3O[C@H]1C[C@H](N)[C@H](O)[C@H](C)O1,Potency,[6],"inconclusive: 11.9 nM [cytotoxic, full curve, poor fit] and inconclusive: 69 µM [cytotoxic, single point]"
same,Potency,[7],active: 9.44 µM and active: 30.8 µM
same,Potency,[2],active: 1.5 µM and active: 4.35 µM
same,Potency,[11],"inconclusive: 39.8 µM [fluorescent, single point]"
same,Potency,[12],"inconclusive: 44.7 µM [fluorescent, partial curve, poor fit]"
same,Potency,[13],"inconclusive: 39.8 µM [fluorescent, partial curve]"
same,Potency,[14],inconclusive: 39.8 µM [fluorescent]
same,Potency,[15],"inconclusive: 39.8 µM [fluorescent, partial curve]"
same,Potency,[9],active: 3.01 µM [inconclusive] and active: 49.3 µM [inconclusive]
same,Potency,[3],"inconclusive: 9.83 µM [cytotoxic, partial curve]"
same,"activity change, negative = inhibition",[3],inconclusive: -105%
Clc1nc(Cl)c(Cl)c(Cl)c1Cl,Potency,[5],inconclusive: 68.9 µM [activator]
same,Potency,[2],"inconclusive: 548 nM [activator, single point] and inconclusive: 48.6 µM [activator, partial curve]"
same,Potency,[3],active: 15.6 µM and active: 24.5 µM
COc1ccc(C(=O)CC(=O)c2ccc(C(C)(C)C)cc2)cc1,Potency,[6],"inconclusive: 14.7 µM [cytotoxic, partial curve, poor fit]"
same,Potency,[8],active: 18.5 µM
O=Cc1ccccc1C=O,Potency,[5],"active: 11.9 µM and inconclusive: 686 nM [activator, full curve, poor fit]"
same,Potency,[8],active: 61.1 µM
same,Potency,[2],active: 21.1 µM and active: 30.6 µM
same,Potency,[9],"inconclusive: 6.74 µM [cytotoxic, partial curve, poor fit] and inconclusive: 11 µM [inhibitor, partial curve]"
same,Potency,[3],active: 6.16 µM
Cc1ccc2c(c1)C(=O)c1ccccc1C2=O,Potency,[5],"inconclusive: 8.6 µM [activator, partial curve, poor fit]"
same,Potency,[8],"inconclusive: 68.3 µM [cytotoxic, partial curve, poor fit]"
same,Potency,[3],"inconclusive: 54.7 µM [inhibitor, single point]"
